Data published in PubChem BioAssay AID504339 (National Center for Advancing Translational Sciences (NCATS), 2011).
About 17,000 (4.4%) of roughly 390,000 compounds were called active. Inconclusive results, whose numbers are uncertain, are shown with a selection of clear calls. Calls come from the whole dose curve; as a rule, active = well fitted inhibition curve with a large enough effect; inconclusive = small, poorly fitted or top-dose-only effect; inactive = no such curve, though single readings can be large or run the other way. A potency beside an inconclusive call is a rough fit, not a confirmed value.

molecular target: Lysine-specific demethylase 4A (Homo sapiens) (UniProt O75164); assay: qHTS Assay for Inhibitors of JMJD2A-Tudor Domain; conditions: AlphaScreen JMJD2A-Tudor / H3K4me3 peptide binding; activity change, negative = inhibition: at 114 µM (top of the series); note: nearly all actives have a fitted effect of over 50% in size
Chain of UniProt O75164 (O75164 whole entry, looked up, the tested form may be a part): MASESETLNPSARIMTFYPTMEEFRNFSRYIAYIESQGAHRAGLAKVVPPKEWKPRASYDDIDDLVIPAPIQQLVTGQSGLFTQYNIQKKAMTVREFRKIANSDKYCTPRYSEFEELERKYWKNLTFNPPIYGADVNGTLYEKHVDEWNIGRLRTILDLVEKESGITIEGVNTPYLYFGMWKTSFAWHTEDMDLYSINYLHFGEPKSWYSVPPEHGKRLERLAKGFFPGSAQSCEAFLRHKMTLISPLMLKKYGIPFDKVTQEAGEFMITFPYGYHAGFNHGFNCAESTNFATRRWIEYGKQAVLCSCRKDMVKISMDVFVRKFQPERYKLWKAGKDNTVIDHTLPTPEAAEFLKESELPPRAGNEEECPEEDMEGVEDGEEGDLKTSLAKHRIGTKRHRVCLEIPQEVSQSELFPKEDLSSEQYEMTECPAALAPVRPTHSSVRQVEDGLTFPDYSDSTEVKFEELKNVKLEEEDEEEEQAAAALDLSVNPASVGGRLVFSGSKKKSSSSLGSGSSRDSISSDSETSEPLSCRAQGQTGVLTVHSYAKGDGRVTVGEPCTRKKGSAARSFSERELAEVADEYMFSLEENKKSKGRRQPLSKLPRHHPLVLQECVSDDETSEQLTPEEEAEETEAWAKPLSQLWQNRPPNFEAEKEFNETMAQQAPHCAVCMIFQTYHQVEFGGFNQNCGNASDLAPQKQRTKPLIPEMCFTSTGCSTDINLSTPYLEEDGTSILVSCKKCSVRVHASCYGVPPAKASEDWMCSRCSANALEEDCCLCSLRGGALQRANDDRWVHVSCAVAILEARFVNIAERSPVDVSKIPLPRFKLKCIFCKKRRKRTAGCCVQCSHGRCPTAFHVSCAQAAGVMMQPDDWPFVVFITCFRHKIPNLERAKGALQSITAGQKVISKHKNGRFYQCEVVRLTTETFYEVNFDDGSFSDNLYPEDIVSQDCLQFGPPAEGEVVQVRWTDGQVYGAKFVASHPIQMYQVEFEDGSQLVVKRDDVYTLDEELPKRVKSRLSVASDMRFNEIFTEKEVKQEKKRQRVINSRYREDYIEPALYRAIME
% is set by controls: 0 for no effect and ±100 for the full control effect; potency is the fitted concentration of half-maximal effect; tags give direction and shape of the fitted curve.

| Structure (SMILES) | Potency | activity change, negative = inhibition |
| --- | --- | --- |
| O=C(COC(=O)/C=C/c1ccccc1[N+](=O)[O-])Nc1ccc2[nH]c(=O)[nH]c2c1 | inconclusive: 100 µM [inhibitor, single point] |  |
| Cc1ccc(-c2nnc(SCC(=O)N(C)C)nc2-c2ccc(C)cc2)cc1 | inconclusive: 39.8 µM [inhibitor, partial curve] |  |
| Cc1cc(OC(C)C(=O)NCc2ccncc2)c2c(C)c(C)c(=O)oc2c1 (centres undefined) | inconclusive: 20 µM [inhibitor, full curve, poor fit] |  |
| COc1ccc(-n2nc3c(N4CCCC(C(=O)NCCc5ccc(C)cc5)C4)nnc(C)c3c2C)cc1 (centres undefined) | inconclusive: 56.2 µM [inhibitor, partial curve] |  |
| COc1ccc(NC(=O)COCc2cc(-c3cccs3)on2)cc1 | inactive |  |
| NC(=S)NNc1cccc(Cl)c1 | inconclusive: 89.1 µM [inhibitor, single point] |  |
| O=C1NC(=S)SC1=Cc1ccccc1Br | inconclusive: 31.6 µM [inhibitor, full curve, poor fit] |  |
| COc1ccc(-n2cc(-c3ccccc3)nc2SCC(=O)Nc2ccccc2)cc1Cl | inconclusive: 31.6 µM [inhibitor, full curve, poor fit] |  |
| CC1CCCN(c2ccc(C(=O)OCn3nnc4ccccc4c3=O)cc2[N+](=O)[O-])C1 (centres undefined) | inconclusive: 14.1 µM [inhibitor, partial curve] |  |
| COC(=O)CCCC1=CC2=C(c3ccccc3)C(=O)C(C)(OC(=O)C3CCCC3)C(=O)C2=CN1C1CCCC1 (centres undefined) | inconclusive: 56.2 µM [inhibitor, partial curve] |  |
| O=C(Nc1ccc2c(c1)OCO2)C1CCN(Cc2cnn(-c3ccccc3)c2-n2cccc2)CC1 | inconclusive: 56.2 µM [inhibitor, partial curve] |  |
| O=C(CCN1CCCCC1)c1ccc2c(c1)OCO2 | inactive |  |
| Nc1ccc2c(c1)Cc1cc([N+](=O)[O-])ccc1-2 | inactive |  |
| Oc1cccc(/C=N/n2c(C3CCCCC3)n[nH]c2=S)c1 | active: 31.6 µM |  |
| O=c1c2ccccc2sn1-c1ccccc1 | active: 3.98 µM |  |
| Cc1onc(-c2ccccc2Cl)c1C(=O)N1CCCCC1C (centres undefined) | inactive |  |
| Cc1ccc(S(=O)(=O)NCC2NCCc3ccccc32)cc1 (centres undefined) | inconclusive: 63.1 µM [inhibitor, partial curve, poor fit] |  |
| Oc1ccc(-c2[nH]ncc2-c2cccc3cccnc23)c(O)c1 | inconclusive: 79.4 µM [inhibitor, single point] |  |
| Cc1ccc(C)c(NS(=O)(=O)c2cc3c(cc2Cl)NC(=O)CO3)c1 | inconclusive: 20 µM [inhibitor, full curve] |  |
| CN(CC(=O)Nc1cccc(F)c1)C(=O)c1ccc(N2CCCCCC2)c([N+](=O)[O-])c1 | inconclusive: 44.7 µM [inhibitor, partial curve] |  |
| CC(Nc1nc(-c2cccc(Br)c2)cs1)c1nc2cc(Cl)c(N3CCCCC3)cc2n1CCOCCO (centres undefined) | inconclusive: 44.7 µM [inhibitor, partial curve] |  |
| C/C(=N\NC(N)=S)C1(C)CCCCC1 | active: 35.5 µM |  |
| O=C(c1ccco1)N1CCN(c2nc(-c3ccc(F)cc3)cs2)CC1 | inconclusive: 56.2 µM [inhibitor, partial curve] |  |

| Structure (SMILES) | Potency | activity change, negative = inhibition |
| --- | --- | --- |
| Cc1cc(C(=O)N/N=C\C(Br)=C\c2ccccc2)c(C)o1 | inconclusive: 31.6 µM [inhibitor, full curve] |  |
| OCCCN=C1CCCc2c1[nH]c1ccc(Cl)cc21 | inconclusive: 44.7 µM [inhibitor, partial curve] |  |
| OCCNc1nc(Nc2ccc(O)cc2)nc2ccccc12 | inconclusive: 56.2 µM [inhibitor, partial curve] |  |
| NC(=O)c1ccc(SCC(=O)OCC(=O)NC2CCCCCCC2)c([N+](=O)[O-])c1 | inconclusive: 44.7 µM [inhibitor, partial curve] |  |
| COc1ccccc1/C=N/NC(=O)c1ccc(N(C)S(=O)(=O)c2ccccc2)cc1 | inconclusive: 15.8 µM [inhibitor, full curve, poor fit] |  |
| COc1ccc(NC(=S)Nc2ccc3snnc3c2)cc1 | inconclusive: 39.8 µM [inhibitor, full curve] |  |
| CCCCC(=O)NC(c1ccc(Cl)cc1)c1ccc2cccnc2c1O (centres undefined) | active: 56.2 µM |  |
| CCN(CC)c1ccc(C(=O)N2CCC(c3c[nH]c4ccccc34)(c3c[nH]c4ccccc34)CC2)cc1 | inconclusive: 10 µM [inhibitor, full curve, poor fit] |  |
| Oc1c(C=NCc2ccncc2)sc2ccccc12 |  | inactive: -19.1% [at 11.4 µM] |
| COCCn1c(=O)[nH]c2cc(C(=O)NCCN3CCN(c4ccccc4)CC3)ccc2c1=O | inactive |  |
| O=C(CN(C(=O)c1ccc(Cl)cc1)C1CCCCC1)Nc1ccc(Cl)c([N+](=O)[O-])c1 | inconclusive: 14.1 µM [inhibitor, partial curve, poor fit] |  |
| O=C(C[n+]1ccccc1)N/N=C/c1ccccc1F | inconclusive: 39.8 µM [inhibitor, single point] |  |
| N=c1c2c(ncn1Cc1ccco1)Oc1ccc3ccccc3c1C2c1ccccc1 (centres undefined) | inconclusive: 39.8 µM [inhibitor, partial curve] |  |
| COc1cc(OC)cc(-c2ncc3ccccn23)c1 | active: 2.82 µM |  |
| Cn1c(-c2ccccc2)c(CCO)c2ccccc21 | inconclusive: 39.8 µM [inhibitor, partial curve] |  |
| CC1CCc2c(sc(NC(=O)c3nc4ncccn4n3)c2C#N)C1 (centres undefined) | inconclusive: 79.4 µM [inhibitor, partial curve] |  |
| Cc1ccccc1NS(=O)(=O)c1nnc(NC(=O)c2ccccc2C)s1 | inconclusive: 50.1 µM [inhibitor, partial curve, poor fit] |  |
| COc1ccccc1-c1cc(C(=O)NC2CCN(C)CC2)c2ccc(Cl)c(C)c2n1 | inactive |  |
| CCCn1c(SCC(=O)NCc2ccc(F)cc2)n[nH]c1=O | active: 44.7 µM |  |
| Cc1ccc(C)c(NC(=O)COc2coc(CN3CCc4ccccc43)cc2=O)c1 | inactive |  |
| Cn1c(N=Nc2ccccc2)nc2ccccc21 | inconclusive: 31.6 µM [inhibitor, single point] |  |
| Cc1ccc(-n2c(Cc3cccn3C)nnc2SCC(=O)NCc2ccco2)cc1 | inconclusive: 25.1 µM [inhibitor, full curve] |  |
| O=C(NCc1ccco1)c1ccc(COCC(F)(F)C(F)F)cc1 | inconclusive: 89.1 µM [inhibitor, single point] |  |

| Structure (SMILES) | Potency | activity change, negative = inhibition |
| --- | --- | --- |
| CCCCN1CCCc2cc(CN(CCCN3CCOCC3)C(=O)Nc3ccc(OCC)cc3)ccc21 | active: 12.6 µM |  |
| Cc1cc(C(=O)N2CCc3c([nH]c4ccccc34)C2c2c(F)cccc2Cl)no1 (centres undefined) | inconclusive: 56.2 µM [inhibitor, partial curve, poor fit] |  |
| CC1CCCN(CCCOc2ccc(Br)cc2Cl)C1 (centres undefined) | active: 1.12 µM |  |
| CC(C)n1c(=S)[nH]c2scc(-c3cccs3)c2c1=O | inconclusive: 56.2 µM [inhibitor, partial curve] |  |
| CC1CN(c2nc3c(c(=O)n(Cc4ccc(Cl)c(Cl)c4)c(=O)n3C)n2C)CC(C)O1 (centres undefined) | inconclusive: 25.1 µM [inhibitor, full curve] |  |
| O=C(Nc1cccc2ccccc12)OCc1cncs1 | inactive |  |
| COc1cc(/C=N/NC(=O)c2csc3c2CCCC3)ccc1OCCN1CCOCC1 | inactive |  |
| CC(C)(C)NC(=O)N1CCn2cccc2C1c1ccccc1F (centres undefined) | inconclusive: 31.6 µM [inhibitor, partial curve] |  |
| CCNC(=S)N(CCc1c(C)[nH]c2ccc(C)cc12)Cc1cccs1 | inconclusive: 44.7 µM [inhibitor, full curve, poor fit] |  |
| CN(C)c1ccc(N/C=C/C(=O)c2ccccc2)cc1 | inconclusive: 11.2 µM [inhibitor, partial curve] |  |
| COc1ccc(NC(=O)C(OC(=O)c2ccc([N+](=O)[O-])o2)c2ccccc2)cc1Cl (centres undefined) | inconclusive: 31.6 µM [inhibitor, full curve] |  |
| O=C(c1ccc([N+](=O)[O-])cc1)c1cc2ccc(O)cc2oc1=O | inactive |  |
| Cc1c(C)n(Cc2ccccc2)c2ncnc(NCCCN(C)C)c12 | inconclusive: 50.1 µM [inhibitor, partial curve] |  |
| C=Cc1ccc(CN2C(=O)N(c3cccc(Cl)c3)S(=O)(=O)c3ccccc32)cc1 | inactive |  |
| Oc1c(Cl)cc(Cl)cc1C=Nc1ccc2c(c1)OCCO2 | inconclusive: 100 µM [inhibitor, single point] |  |
| CC1=Nc2ccccc2/C1=C/c1c(N)n2c(S(=O)(=O)CC(C)C)nsc2nc1=O | inconclusive: 56.2 µM [inhibitor, partial curve] |  |
| O=C(Nc1ncc(Cc2cc(Cl)ccc2Cl)s1)c1ccc([N+](=O)[O-])cc1 | inconclusive: 63.1 µM [inhibitor, partial curve, poor fit] |  |
| Cc1ccc(N2CC(C(=O)Nc3ccc(Br)cc3)CC2=O)cc1 (centres undefined) | inactive |  |
| CC(C)OCCCN1CC(=O)N2C(c3ccccc3)c3[nH]c4ccccc4c3C[C@H]2C1=O (some centres undefined) | inconclusive: 39.8 µM [inhibitor, partial curve] |  |
| COc1ccc(N2CCN(C(=O)c3ccc4c(c3)CC(c3ccccc3)OC4=O)CC2)cc1 (centres undefined) | inconclusive: 12.6 µM [inhibitor, single point] |  |
| COC(=O)c1ccc(CN2CCN(CC(C)C)C(CCO)C2)cc1 (centres undefined) | inactive |  |
| O=C(CSC1=NNC(c2ccccn2)S1)Nc1ccccc1 (centres undefined) | active: 6.31 µM |  |
| c1ccc(CNc2ccc3c(c2)ncn3C2CCCCC2)nc1 | active: 25.1 µM |  |
